From patent US8980944B2 (Gemmus Pharma Inc., priority 2006, dated 2015)

Columns and labels:
[1] = Study A: tolerance and pharmacokinetics in volunteers after single oral dose; conditions: human volunteers, single oral dose 2, 4, 8, 16, 32, or 65 μg
Description: 14 volunteers were given a single oral dose of Nileprost at 2, 4, 8, 16, 32, or 65 μg. The following parameters were studied: Blood pressure, heart rate, clinical chemistry, platelet aggregation, and ECG.

[2] = Study B: single oral administration up to 375 μg in volunteers; conditions: human volunteers, single oral dose 50 to 375 μg; higher doses = 255 μg and 375 μg
Description: 12 volunteers were given a single oral dose of Nileprost at 50, 75, 112, 255 or 375 μg. The following parameters were studied: Blood pressure, heart rate, ECG, lung function, clinical chemistry and hematology, platelet aggregation, and stools.

CCCCC(C)[C@H](O)/C=C/[C@@H]1[C@H]2C/C(=C(\C#N)CCCC(=O)O)O[C@H]2C[C@H]1O (some centres unmarked) [Nileprost]
Tolerance (blood pressure, heart rate, clinical chemistry, platelet aggregation, ECG) [1]: No findings but enteropooling in higher doses
Tolerance (blood pressure, heart rate, ECG, lung function, clinical chemistry and hematology, platelet aggregation, stools) [2]: No findings but “painless diarrhea” in higher doses
